Measurements as given in the supplement of paper PMC8728848.
The list shows a part of the results.

Experiments:
[1] = target: Neu5Gc(a2-8)Neu5Gc(a2-6)Gal(b1-4)GlcNAc; assay: glycan array binding signal (z-score within array); higher = stronger binding; details: glycan notation: IUPAC condensed, linker removed
How it was run: (§1)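 The binding signal is a Z-score computed within each array. Data were drawn from 3228 arrays in the Consortium for Functional Glycomics database, restricted to those with a known protein sequence. Scores were averaged over arrays of the same protein sequence at different concentrations or buffers, and over linkers, and negative values can be taken as non-binding.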

[2] = target: Neu5Gc(b2-6)Gal(b1-4)GlcNAc; assay: as above; details: glycan notation: IUPAC condensed, linker removed
How it was run: as §1

B1: AidA (Burkholderia cenocepacia) (protein)
chain: MSRVTDVLVSFDTETILKKYPNPSKNPAAPTLIDWRYVYMVTNQDNVISGQAGGELDLKAQVGDLIRWRETSLSLGFENQVVFYKFIGNVGNDLISTPTPRVAEASIPVPNTSKPEVPTCQKVANYYWSSECLKVGRVTYHFQFQIIDRNCQSQGCFSWDPFISIHN
[1]
  glycan array binding signal (z-score): -0.407
[2]
  glycan array binding signal (z-score): 0.599
